From PubChem BioAssay AID1645887 (National Center for Advancing Translational Sciences (NCATS), 2021)
Where “and” joins values, the source holds several entries; their conditions need not be identical. Equal values may be shown once. The campaign covered roughly 16,000 compounds. About 40 (0.2%) were called active. Roughly 1% stayed inconclusive and do not appear here. The call rests on the fitted dose curve; in most records, active means well fitted activation curve with a large enough effect; inconclusive means small, poorly fitted or top-dose-only effect, or another doubt; inactive means no such curve, though single readings can be large or run the other way. This is one part of the list.

Molecular target: Rap guanine nucleotide exchange factor 4 (Homo sapiens) (UniProt Q8WZA2)
Assay: Validation qHTS for agonist of cAMP-regulated guanine nucleotide exchange factor 4 (EPAC2);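 further: exchange makes BODIPY-GDP fluorescence drop when released from Rap1B; series mostly up to about 150 µM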
Settings: EPAC2 Rap1B BODIPY-GDP exchange, fluorescence; activation: active compounds read high
Outline: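 Signal normalized against 6.5 mM cAMP as agonist control. Mix of EPAC2 (100 nM), RAP1B-BODIPY-GDP (250 nM) and GDP (50 uM) was read kinetically at 480/540 nm, every 5 min over 30 min, after 5 min room-temperature incubation with compound.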
On the % scale 0 is the no-effect control and ±100 the full control effect.

Chain of UniProt Q8WZA2 (Q8WZA2 whole entry, looked up): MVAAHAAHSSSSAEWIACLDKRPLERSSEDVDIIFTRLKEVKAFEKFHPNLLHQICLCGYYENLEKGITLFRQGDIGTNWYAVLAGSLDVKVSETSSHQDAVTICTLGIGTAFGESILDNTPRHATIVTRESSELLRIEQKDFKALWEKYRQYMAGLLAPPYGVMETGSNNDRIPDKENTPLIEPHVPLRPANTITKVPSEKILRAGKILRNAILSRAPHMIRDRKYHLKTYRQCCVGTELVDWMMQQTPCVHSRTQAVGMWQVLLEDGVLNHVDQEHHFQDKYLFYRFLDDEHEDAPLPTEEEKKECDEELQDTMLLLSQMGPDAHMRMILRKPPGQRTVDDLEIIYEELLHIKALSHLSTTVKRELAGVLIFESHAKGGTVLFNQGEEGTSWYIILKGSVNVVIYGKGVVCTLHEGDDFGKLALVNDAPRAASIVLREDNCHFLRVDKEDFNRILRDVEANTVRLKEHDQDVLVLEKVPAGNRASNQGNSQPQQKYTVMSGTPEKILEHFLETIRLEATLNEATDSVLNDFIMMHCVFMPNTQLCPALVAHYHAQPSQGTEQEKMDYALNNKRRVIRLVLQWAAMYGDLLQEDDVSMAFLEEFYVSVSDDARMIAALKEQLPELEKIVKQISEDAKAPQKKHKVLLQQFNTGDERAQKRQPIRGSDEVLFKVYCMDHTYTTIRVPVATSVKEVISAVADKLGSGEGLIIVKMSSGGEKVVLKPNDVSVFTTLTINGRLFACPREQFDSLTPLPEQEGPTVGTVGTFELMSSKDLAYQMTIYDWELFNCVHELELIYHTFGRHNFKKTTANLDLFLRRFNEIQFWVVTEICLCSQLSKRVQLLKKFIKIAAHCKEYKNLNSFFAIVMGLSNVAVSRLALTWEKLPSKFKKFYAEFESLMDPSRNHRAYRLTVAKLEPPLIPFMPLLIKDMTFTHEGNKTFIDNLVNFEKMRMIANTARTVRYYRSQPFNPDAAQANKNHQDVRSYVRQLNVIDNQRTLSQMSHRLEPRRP

activation, inactive:
CC(=O)OCC(=O)C1CCC2C3CC=C4CC(O)CC[C@@]4(C)C3CC[C@]12C (stereo not given in full) -8.58%, CCCCC(=O)O[C@H]1CC[C@H]2[C@@H]3CCc4cc(O)ccc4[C@H]3CC[C@]12C -37.7%, Cc1noc(C)c1-c1nccc(NC2CC2)n1 -2.86%, c1ccc2sc(SSc3nc4ccccc4s3)nc2c1 -4.43%, c1ccc(CNc2ncncc2-c2cccnc2)cc1 -21.4%, COC(=O)Nc1nc2ccc(C(=O)c3ccccc3)cc2[nH]1 -6.89% and -9.89%, COc1cccc(-c2cncnc2NCc2cccc(C)c2)c1 -11.1%, NC(=O)C1c2ccccc2CCc2ccccc21 -0.466%, Cn1c(NCCN(CCO)CCCc2ccc([N+](=O)[O-])cc2)cc(=O)n(C)c1=O -33%, N=C(N)SCCc1ccc(OCc2ccc([N+](=O)[O-])cc2)cc1 8.37%, CC[C@@H]1[C@H]2CCCC(=O)N3CC[C@@H](C[C@@H]1Nc1ccccc1)[C@@H]23 -28.1%, O=C(OC[C@H]1O[C@@H](OC(=O)c2cc(O)c(O)c(OC(=O)c3cc(O)c(O)c(O)c3)c2)[C@H](OC(=O)c2cc(O)c(O)c(OC(=O)c3cc(O)c(O)c(O)c3)c2)[C@@H](OC(=O)c2cc(O)c(O)c(OC(=O)c3cc(O)c(O)c(O)c3)c2)[C@@H]1OC(=O)c1cc(O)c(O)c(OC(=O)c2cc(O)c(O)c(O)c2)c1)c1cc(O)c(O)c(OC(=O)c2cc(O)c(O)c(O)c2)c1 -28.4%, N=C(N)c1ccc(OCCCCCOc2ccc(C(=N)N)cc2)cc1 -5.03% and -5.06%, COc1ccc(C(=O)N2CCC3(CCN(C(=O)Nc4ccccc4)CC3)CC2)cc1 -1.67%, COc1cccc(CN2CCCC(c3nc(C)ncc3-c3ccc(F)cc3)C2)c1OC (stereo not given) -1.16%, CCn1nc(C)cc1C(=O)NCCN1Cc2ccccc2OC(c2ccccc2F)C1 (stereo not given) -3.52%, Fc1ccc(C(c2ccc(F)cc2)N2CCN(C/C=C/c3ccccc3)CC2)cc1 -6.26% and -6.59% and -5.37%, COC(=O)C1=C(C)NC(C)=C(C(=O)OCC(C)=O)C1c1ccccc1[N+](=O)[O-] (stereo not given) 2.84%, c1ccc2c(NCCN3CCOCC3)nc(-c3ccoc3)nc2c1 -5.05%, CN1CCc2c(c3ccccc3n2Cc2ccccc2)C1 -8.51% and -2.42%, COc1cc(-c2noc(C)c2C#CC2(O)CCCCC2)cc(OC)c1OC -25.1%, O=C1[C@H](Cc2ccccc2)NC/C=C\C[C@@H](c2ccco2)N1Cc1ccccc1 -30.8%, COc1cc(CN2CCOc3ccc(CN4CCC(Oc5cccnc5)CC4)cc3C2)ccc1F -18.3%, Nc1nc(N)c2nc(CNc3ccc(C(=O)NC(CCC(=O)O)C(=O)O)cc3)cnc2n1 (stereo not given) -11.1%, COc1ccc(-n2c(=O)c(-c3cccs3)nc3cncnc32)cc1 -11.4%, CC(NC(=O)C1CCOCC1)c1nnc2n1CCN(Cc1ccc3cccnc3c1)CC2 (stereo not given) -11.4%, CC(=O)c1ccc[n+](CC(=O)c2ccc(F)cc2)c1 -18.9%, O=C(c1cnccn1)N1CCC2(CC1)CCN(c1ncccn1)CC2 -23.9%, CCCCNC(=O)O[C@@H]1C[C@H]2CCCC(=O)N3CC[C@@H](C1)[C@@H]23 -16.1%, CC(C)(CO)[C@@H](O)C(=O)NCCCC(=O)O 0.517%, NC(=NCc1ccccc1)NC(=O)c1nc(Cl)c(N)nc1N 5.24% [middle of 4 runs], C1=Cc2ccccc2/C1=C\c1ccc2c(c1)OCO2 2.94%, Cc1ccc(Nc2c(F)cccc2Cl)c(CC(=O)O)c1 -22.7%, O=C(O)c1cc(O)c2c(c1)C(=O)c1cccc(O)c1C2=O -23.7%, CC1(C)C(\C=C/C=C\C=C/C=C2/N(CCCCS(=O)(=O)O)c3ccc4ccccc4c3C2(C)C)=[N+](CCCCS(=O)(=O)[O-])c2ccc3ccccc3c21 24.9%, CCCCN1CC[C@H]2C=CC[C@@H](C(=O)Nc3ccccc3)[C@H]2C1=O -1.88%, COc1ccccc1C(=O)Nc1cccc(N2CCC(NCc3cnn(-c4ccccc4)n3)CC2)c1 13.4%, CN1CC[C@@]2(CCCN(S(=O)(=O)c3ccccc3)C2)C1 -9.67%, COc1cccc2c1[C@@H]1CN(CCCCn3c(=O)[nH]c4c(sc5ncc(-c6ccccc6)nc54)c3=O)C[C@@H]1CO2 -7.71%, CCCCCCCCCCCCCCCC(=O)OC[C@@H](O)[C@H]1OC[C@H](O)[C@H]1O -20.3%, COc1ccc(C(=O)N2CCC[C@@]3(CCN(c4ccccn4)C3)C2)cc1 -1.52%, NCCNC(=O)c1ccc(Cl)cn1 -13.8%, O=C(/C=C/c1ccc(O)c(O)c1)O[C@H]1C[C@@](O)(C(=O)O)CC(O)C1O (stereo not given in full) -1.35%, O=C(c1ccc2c(c1)OCO2)N1CCOc2ccc(CN3CCC(Oc4cccnc4)CC3)cc2C1 -2.98%, FC(F)(F)C(F)(F)C(F)(F)C(F)(F)C(F)(F)C(F)(F)F 0.487%, N#Cc1ccc(CN2CCCC3(CCN(C(=O)c4cc(C(F)(F)F)cc(C(F)(F)F)c4)CC3)C2)cc1 -11.4%, C=C1CCC[C@]2(C)C[C@H]3OC(=O)[C@H](CNCCc4ccccc4OC)C3CC12 (stereo not given in full) -14%, COc1cccc(CN2CCC3(CC2)c2ccccc2[C@@H](NC(=O)c2ccccc2OC)[C@@H]3O)c1 -4.35%, CC(=O)Oc1ccc(C)cc1 -5.22%, COc1ccc(CN2C[C@H](Sc3nc4ccccc4[nH]3)C[C@H]2C(=O)N2CCCN(C)CC2)cc1C 0.974%, CC1(C)CO[C@@H](CC(=O)O)CN1 24.4%, COc1cc(-c2noc(C)c2C#CCCN2C(=O)c3ccccc3C2=O)cc(OC)c1OC -12.1%, O=C1CCN(CCc2ccccc2)CCN1[C@H](COc1ccccc1)c1ccccc1 -19.9%, COc1cccc(-n2c(SC)nnc2C2CCN(Cc3nc4ccccc4s3)CC2)c1 -4.49%, CNC(C)[C@@H]1CC[C@@H](N)[C@@H](O[C@H]2[C@H](O)[C@@H](O[C@H]3OC[C@](C)(O)[C@H](NC)[C@H]3O)[C@H](N)C[C@@H]2N)O1 (stereo not given in full) -13.9%, Oc1cccc(-c2c3nc(c(-c4cccc(O)c4)c4ccc([nH]4)c(-c4cccc(O)c4)c4nc(c(-c5cccc(O)c5)c5ccc2[nH]5)CC4)C=C3)c1 -5.84% and -22.1%, CN[C@@H]1[C@H](O[C@H]2[C@H](O[C@H]3[C@H](O)[C@@H](O)[C@H](N=C(N)N)[C@@H](O)[C@@H]3N=C(N)N)O[C@@H](C)[C@]2(O)C=O)O[C@@H](CO)[C@H](O)[C@H]1O 7.36%, Cc1cccc(C(=O)O)c1O 6.72%, COCC(=O)N1CCC[C@@]2(CCN(c3ccncc3)C2)C1 -13.6%, Cn1cc(C(=O)[C@@H]2CCc3nc[nH]c3C2)c2ccccc21 -3.04%, Nc1nc(Cl)nc2c1ncn2[C@H]1C[C@H](O)[C@@H](CO)O1 4.66% and -4.13%, COCCn1c(=O)c(CCc2ccccc2)nc2cnc(N(C)C)nc21 1.89%, Cc1cnc(CNc2ccnc(-c3ccoc3)n2)cn1 4.63%, CCc1cc(S(=O)(=O)O)c2cc(C(C)C)cccc1-2 -16.4%, COc1cc(-c2oc3cc(O)ccc3c(=O)c2O)ccc1O -10.4%, OCCOCCN1CCN(C2=Nc3ccccc3Sc3ccccc32)CC1 -9.24% and -25.7%, CCNc1ncc2nc(C)c(=O)n(Cc3ccc(F)cc3)c2n1 10.8%, Cc1cc(O)c(C)c(O)c1C(=O)O 2.2%, O=c1cc(-c2ccccc2O)oc2c(O)c(O)ccc12 -10.3%, O=C(NCCc1ccccn1)C1CC12CCN(C(=O)c1ccccc1Cl)CC2 (stereo not given) -15.9%, CC1(C)CO[C@H](CC(=O)O)CN1 -2.59%, COc1cccc(-c2nccc(NCc3cccs3)n2)c1 -11.5%, Cn1cnc2c(NCc3ccccc3)nc(NCCO)nc21 4.72% [middle of 4 runs], O=C(/C=C/c1ccccc1)c1ccc(O[C@H]2OC(CO)C(O)C(O)C2O)cc1O (stereo not given in full) -0.883%, CC(=O)N1CCC[C@@]2(CCN(c3ccncc3)C2)C1 -12.8%, CC(C)NC(=O)N1CC[C@@]2(CCCN(S(C)(=O)=O)C2)C1 -10.6%, CC1(C)S[C@@H]2[C@H](NC(=O)[C@H](N)c3ccc(O)cc3)C(=O)N2[C@H]1C(=O)O 11.5% and -15.2%, CCOC(=O)C1=C[C@@]2(CC)CCCN3CCc4c(n1c1ccccc41)C32 (stereo not given in full) -1.12%, CC(C)C(NS(C)(=O)=O)c1nnc2n1CCN(Cc1cccc3ncccc13)CC2 (stereo not given) -12.7%, CC(C)NC(=O)N1CCC2(CC1)CCN(C(=O)c1ccco1)CC2 -9.04%
